According to PMC6265484, “Homodimerization regulates an endothelial specific signature of the SOX18 transcription factor” (Nucleic Acids Research, 2018):
Results are given in words; binding and its absence hold for the method and conditions named. Binding seen in cells or lysates may run through a third protein.

Target: SOX18 homodimer mutant BiFC reporter (NmVENUS155-SOX18SΔ84-205 and CmVENUS155-SOX18SΔ84-205) (UniProt P35713)
Assay: split reporter; mVENUS split at amino acid 155; mRNAs of the two halves co-injected into single-cell zebrafish embryos, live confocal imaging at 4-5 hpf

binding: no binding
B1: SOX18 homodimer mutant BiFC reporter (NmVENUS155-SOX18SΔ84-205 and CmVENUS155-SOX18SΔ84-205) (protein, UniProt P35713)
chain: MQRSPPGYGAQDDPPARRDCAWAPGHGAAADTRGLAAGPAALAAPAAPASPPSPQRSPPRSPEPGRYGLSPAGRGERQAADESEFDGLGLPTPERSPLDGLEPGEAAFFPPPAAPEDCALRPFRAPYAPTELSRDPGGCYGAPLAEALRTAPPAAPLAGLYYGTLGTPGPYPGPLSPPPEAPPLESAEPLGPAADLWADVDLTEFDQYLNCSRTRPDAPGLPYHVALAKLGPRAMSCPEESSLISALSDASSAVYYSACISG
